Data: the supplement of paper PMC10670038
Counter-ions that a name gives are not always drawn. ± gives the standard deviation of the averaged measurements. In all, about 2,000 compounds were measured (“relative cell viability vs DMSO, compound alone”: median about 1.1, lowest 2% from about 0.29 on). The list shows a part of the results.

Each molecule was assayed on TE10 (assay: relative cell viability vs DMSO, compound alone (fraction); TE10 is an esophageal squamous carcinoma line; higher = less cytotoxic). Settings: 2 µM; 48 h.
Experimental: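 TE10 ESCC cells (1,000/well, 384-well plates) were treated with Selleck bioactive library compounds at 2 uM alone for 48 h. Viability was read by CellTiter-Glo and expressed relative to DMSO wells. Two technical replicates (A, B).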
With `CCn1cc(C(=O)O)c(=O)c2ccc(C)nc21` [Nalidixic acid] the relative cell viability was 1.11 ± 0.052. In the case of `COc1ccc2cc(CCC(C)=O)ccc2c1` [Nabumetone], the relative cell viability is reported as 1.09 ± 0.037. Work on `Cc1ccc(S(=O)(=O)NC(=O)NN2CC3CCCC3C2)cc1` (stereo not given) [Gliclazide] yielded a relative cell viability of 1.13 ± 0.005. `Cc1cc(Cn2cnc3c2CC(C(=O)O)N(C(=O)C(c2ccccc2)c2ccccc2)C3)ccc1N(C)C` (stereo not given) was tested, and the relative cell viability was 1.15 ± 0.044. `O=C(Nc1cc(C(F)(F)F)ccc1N1CCCCC1)c1ccncc1` was tested, and the relative cell viability was 1.16 ± 0.077. For `Cc1ccc(NC(=O)c2ccc(CN3CCN(C)CC3)cc2)cc1Nc1nc(-c2cccnc2)cs1` [Masitinib (AB1010)], the relative cell viability was 1.084 ± 0.0069. `COc1nc(C)nc(Cl)c1NC1=NCCN1` [Moxonidine] gave a relative cell viability of 0.997 ± 0.12. For `CCCC[C@@H](C=O)NC(=O)[C@H](CC(C)C)NC(=O)OCc1ccccc1` [Calpeptin], the relative cell viability was 1 ± 0.021. `Clc1ccc(C(Cn2ccnc2)OCc2c(Cl)cccc2Cl)c(Cl)c1` (stereo not given) [Isoconazole nitrate] gave a relative cell viability of 0.991 ± 0.011. Work on `C=CC(=O)N1CCN(C(=O)CNc2cc(I)c(Cl)cc2O)CC1` [K-Ras(G12C) inhibitor 12] yielded a relative cell viability of 1.15 ± 0.067. With `NC(=O)N1c2ccccc2C=Cc2ccccc21` [Carbamazepine] the relative cell viability was 1.02 ± 0.016. Molecule `CC(C)n1nc(-c2cc3cc(O)ccc3[nH]2)c2c(N)ncnc21` has a relative cell viability of 0.624 ± 0.022. Molecule `O=c1ncccn1[C@@H]1O[C@H](CO)[C@@H](O)[C@H]1O` [Zebularine] has a relative cell viability of 1.01 ± 0.023. `O=C(CCCCCCNC(=O)c1cnc(N(c2ccccc2)c2ccccc2)nc1)NO` [Rocilinostat (ACY-1215)] gave a relative cell viability of 0.866 ± 0.01. `NC(CO)(CO)CO` [Trometamol] gave a relative cell viability of 1.14 ± 0.028. For `C[C@@H](N)[C@H]1CC[C@H](C(=O)Nc2ccncc2)CC1`, the relative cell viability was 1.06 ± 0.02. In the case of `O=c1cc(-c2ccc(O)cc2)oc2cc(O)cc(O)c12` [Apigenin], the relative cell viability is reported as 1.07 ± 0.066. `O=C1CN2Cc3c(ccc(Cl)c3Cl)N=C2N1` [Anagrelide HCl] was tested, and the relative cell viability was 1.1 ± 0.055. Molecule `CC(C)NCC(O)COc1ccc(COCCOC(C)C)cc1` (stereo not given) [Bisoprolol fumarate] has a relative cell viability of 1.03 ± 0.083. `COc1ccc(-c2cc(=O)c3c(O)cc(O)cc3o2)cc1O` [Diosmetin] was tested, and the relative cell viability was 1.04 ± 0.14. With `CN1CC[C@H](c2c(O)cc(O)c3c(=O)cc(-c4ccccc4Cl)oc23)[C@H](O)C1` [Flavopiridol (Alvocidib)] the relative cell viability was 0.228 ± 0.055. For `CN1CC[C@H](c2c(O)cc(O)c3c(=O)cc(-c4ccccc4Cl)oc23)[C@H](O)C1` [Flavopiridol HCl], the relative cell viability was 0.293 ± 0.03. Work on `Nc1nc(Cl)nc2c1ncn2[C@@H]1O[C@H](CO)[C@@H](O)[C@@H]1F` [Clofarabine] yielded a relative cell viability of 0.932 ± 0.038. `O=C(NCCS(=O)(=O)c1ccc(C(F)(F)F)cn1)c1ccc(Cl)cc1` gave a relative cell viability of 1.08 ± 0.018. `C=C1CC[C@H](O)C/C1=C/C=C1\CCC[C@]2(C)[C@@H]([C@H](C)CCCC(C)(C)O)CC[C@@H]12` [Calcifediol] was tested, and the relative cell viability was 1.01 ± 0.016. `CC(C)CC(=O)Nc1n[nH]c2c1CN(C(=O)C1CCN(C)CC1)C2(C)C` gave a relative cell viability of 0.721 ± 0.1. `CC(=O)N1c2ccc(-c3ccc(C(=O)O)cc3)cc2[C@H](Nc2ccc(Cl)cc2)C[C@@H]1C` gave a relative cell viability of 0.619 ± 0.033. Work on `CC[C@H]1OC(=O)[C@H](C)[C@@H](O[C@H]2C[C@@](C)(OC)[C@@H](O)[C@H](C)O2)[C@H](C)[C@@H](O[C@@H]2O[C@H](C)C[C@H](N(C)C)[C@H]2O)[C@](C)(O)C[C@@H](C)/C(=N\OCOCCOC)[C@H](C)[C@@H](O)[C@]1(C)O` [Roxithromycin] yielded a relative cell viability of 1.14 ± 0.014. `Nc1nc(F)nc2c1ncn2[C@@H]1O[C@H](CO)[C@@H](O)[C@@H]1O` [Fludarabine] showed a relative cell viability of 0.291 ± 0.0055. For `CCOC(=O)[C@H](CCc1ccccc1)N[C@H]1CCc2ccccc2N(CC(=O)O)C1=O` [Benazepril HCl], the relative cell viability was 1.047 ± 0.0035. `O=C(Nc1c[nH]nc1-c1nc2ccc(CN3CCOCC3)cc2[nH]1)NC1CC1` showed a relative cell viability of 0.811 ± 0.14. With `COC1=C(OC)C(=O)C(CCCCCCCCCCO)=C(C)C1=O` [Idebenone] the relative cell viability was 1.04 ± 0.064. With `Cc1nc(NC(=O)N2CCC[C@H]2C(N)=O)sc1-c1csc(C(C)(C)C)n1` the relative cell viability was 0.751 ± 0.027. `O=C(Nc1cccc2c(=O)cc(-c3nnn[nH]3)oc12)c1ccc(OCCCCc2ccccc2)cc1` [Pranlukast] showed a relative cell viability of 0.943 ± 0.027. `CC(C)(C)NC[C@H](O)COc1nsnc1N1CCOCC1` [Timolol Maleate] gave a relative cell viability of 1.1 ± 0.043. Molecule `COc1cc(OC)c2c(=O)[nH]c(-c3cc(C)c(OCCO)c(C)c3)nc2c1` has a relative cell viability of 0.8141 ± 0.0068. `O=C(c1cccc(Cl)c1F)N1CCN(Cc2cccc(Nc3nccs3)n2)CC1` was tested, and the relative cell viability was 0.949 ± 0.034. Work on `CC(C)[C@H]1C(=O)N[C@@H](CCCNC(=N)N)C(=O)NCC(=O)N[C@@H](CC(=O)O)C(=O)N[C@H](Cc2ccccc2)C(=O)N1C` [Cilengitide] yielded a relative cell viability of 1.12 ± 0.071. Molecule `CC(C)(C)c1[nH]cnc1/C=c1\[nH]c(=O)/c(=C/c2ccccc2)[nH]c1=O` [Plinabulin (NPI-2358)] has a relative cell viability of 0.8774 ± 0.0029. Molecule `Cn1c(=O)cc(N2CCC[C@@H](N)C2)n(Cc2cc(F)ccc2C#N)c1=O` [Trelagliptin] has a relative cell viability of 1.1 ± 0.018. In the case of `N#Cc1ccc(-c2c(-c3ncn[nH]3)sc(N3CCOCC3)c2C#N)c(F)c1`, the relative cell viability is reported as 0.652 ± 0.025. With `COc1ccc(C(=O)CC2(O)C(=O)Nc3c(Cl)ccc(Cl)c32)cc1` (stereo not given) the relative cell viability was 0.822 ± 0.059. In the case of `O=C(NC1CCN(CCCCC2(C(=O)NCC(F)(F)F)c3ccccc3-c3ccccc32)CC1)c1ccccc1-c1ccc(C(F)(F)F)cc1` [Lomitapide Mesylate], the relative cell viability is reported as 0.9169 ± 0.0071. Work on `O=C(NC1CCN(CCCCC2(C(=O)NCC(F)(F)F)c3ccccc3-c3ccccc32)CC1)c1ccccc1-c1ccc(C(F)(F)F)cc1` [Lomitapide] yielded a relative cell viability of 1.09 ± 0.042. Work on `CC(C)(C)Cn1c(N)nc2ccc(-c3[nH]c(C(C)(C)C)nc3-c3ccc(F)cc3)nc21` yielded a relative cell viability of 1.18 ± 0.086. `CCCN[C@H]1CCc2nc(N)sc2C1` [Pramipexole dihydrochloride monohydrate] was tested, and the relative cell viability was 0.8668 ± 0.0029. `CCCN[C@H]1CCc2nc(N)sc2C1` [Pramipexole] was tested, and the relative cell viability was 1.11 ± 0.049. Molecule `COc1cccc(-c2ccc(NC(=O)C3=C(C(=O)O)CCC3)c(F)c2)c1` [Vidofludimus] has a relative cell viability of 1.07 ± 0.11. With `Clc1cccc(-c2nnnn2Cc2cccnc2)c1Cl` the relative cell viability was 1.12 ± 0.059. `C/C=C1/[C@H](O[C@@H]2O[C@H](CO)[C@@H](O)[C@H](O)[C@H]2O)OC=C(C(=O)OC)[C@H]1CC(=O)OCCc1ccc(O)c(O)c1` [Oleuropein] was tested, and the relative cell viability was 0.87 ± 0.04.
